Test results reported in publication PMC12282084.
No constants are given. Whether binding was seen depends on the method and setting. Binding seen in cells or lysates may run through a third protein. Some results given as binding are weak or reduced against the parent protein; the word gives no strength.

Protein sequences, listed by entry. Tags and fused reporters are not part of them. Lines headed by an entry give the natural chain unless they say otherwise; changes in a name come on top.
UniProt Q06A28: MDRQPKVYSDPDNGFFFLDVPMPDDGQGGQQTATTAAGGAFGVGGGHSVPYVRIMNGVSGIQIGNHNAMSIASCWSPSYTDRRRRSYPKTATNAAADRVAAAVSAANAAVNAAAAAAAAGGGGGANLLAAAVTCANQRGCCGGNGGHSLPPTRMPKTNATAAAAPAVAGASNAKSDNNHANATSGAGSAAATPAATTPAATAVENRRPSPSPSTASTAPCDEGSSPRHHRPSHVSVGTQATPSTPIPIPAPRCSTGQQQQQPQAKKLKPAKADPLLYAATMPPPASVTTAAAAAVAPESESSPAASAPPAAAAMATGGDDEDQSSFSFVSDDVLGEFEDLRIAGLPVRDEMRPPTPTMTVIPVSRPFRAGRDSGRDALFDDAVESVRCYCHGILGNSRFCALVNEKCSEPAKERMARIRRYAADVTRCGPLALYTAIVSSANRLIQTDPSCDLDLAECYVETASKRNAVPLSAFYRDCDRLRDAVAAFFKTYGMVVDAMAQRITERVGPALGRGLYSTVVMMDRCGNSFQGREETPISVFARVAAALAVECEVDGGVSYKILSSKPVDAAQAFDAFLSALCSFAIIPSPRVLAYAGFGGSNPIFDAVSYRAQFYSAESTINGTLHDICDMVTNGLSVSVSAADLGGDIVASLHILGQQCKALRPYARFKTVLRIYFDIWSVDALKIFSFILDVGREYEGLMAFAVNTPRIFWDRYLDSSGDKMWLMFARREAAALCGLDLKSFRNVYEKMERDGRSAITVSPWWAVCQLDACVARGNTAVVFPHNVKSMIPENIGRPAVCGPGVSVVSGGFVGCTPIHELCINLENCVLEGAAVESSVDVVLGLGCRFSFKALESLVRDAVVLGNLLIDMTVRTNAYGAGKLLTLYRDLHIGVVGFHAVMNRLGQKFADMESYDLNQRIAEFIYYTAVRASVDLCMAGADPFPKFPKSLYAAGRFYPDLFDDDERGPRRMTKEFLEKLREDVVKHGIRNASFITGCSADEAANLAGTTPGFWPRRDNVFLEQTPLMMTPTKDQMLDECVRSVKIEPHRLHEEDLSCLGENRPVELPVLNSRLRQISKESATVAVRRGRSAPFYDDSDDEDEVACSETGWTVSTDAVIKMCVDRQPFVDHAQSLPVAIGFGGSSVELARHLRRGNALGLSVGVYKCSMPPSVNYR
UniProt Q9UH17: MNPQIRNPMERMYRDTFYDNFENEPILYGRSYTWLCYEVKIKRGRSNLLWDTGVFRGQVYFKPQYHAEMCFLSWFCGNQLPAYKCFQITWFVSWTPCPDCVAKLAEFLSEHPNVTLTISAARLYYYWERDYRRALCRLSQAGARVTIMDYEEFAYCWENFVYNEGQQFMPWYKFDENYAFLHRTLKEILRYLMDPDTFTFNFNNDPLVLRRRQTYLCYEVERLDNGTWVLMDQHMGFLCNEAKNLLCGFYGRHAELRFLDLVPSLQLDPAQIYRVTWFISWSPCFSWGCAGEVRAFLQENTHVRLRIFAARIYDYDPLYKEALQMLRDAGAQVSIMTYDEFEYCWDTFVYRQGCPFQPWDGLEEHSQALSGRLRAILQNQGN
UniProt Q9HC16: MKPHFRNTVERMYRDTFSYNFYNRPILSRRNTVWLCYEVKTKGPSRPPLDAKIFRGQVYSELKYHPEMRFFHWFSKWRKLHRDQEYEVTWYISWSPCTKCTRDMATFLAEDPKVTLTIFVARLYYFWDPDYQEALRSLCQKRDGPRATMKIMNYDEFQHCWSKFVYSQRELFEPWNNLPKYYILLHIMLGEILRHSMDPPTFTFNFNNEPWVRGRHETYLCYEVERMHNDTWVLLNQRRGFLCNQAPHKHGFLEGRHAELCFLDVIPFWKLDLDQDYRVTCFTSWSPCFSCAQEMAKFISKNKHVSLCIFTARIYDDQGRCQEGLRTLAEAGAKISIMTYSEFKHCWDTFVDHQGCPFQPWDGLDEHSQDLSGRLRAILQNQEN
UniProt Q9Y6K9: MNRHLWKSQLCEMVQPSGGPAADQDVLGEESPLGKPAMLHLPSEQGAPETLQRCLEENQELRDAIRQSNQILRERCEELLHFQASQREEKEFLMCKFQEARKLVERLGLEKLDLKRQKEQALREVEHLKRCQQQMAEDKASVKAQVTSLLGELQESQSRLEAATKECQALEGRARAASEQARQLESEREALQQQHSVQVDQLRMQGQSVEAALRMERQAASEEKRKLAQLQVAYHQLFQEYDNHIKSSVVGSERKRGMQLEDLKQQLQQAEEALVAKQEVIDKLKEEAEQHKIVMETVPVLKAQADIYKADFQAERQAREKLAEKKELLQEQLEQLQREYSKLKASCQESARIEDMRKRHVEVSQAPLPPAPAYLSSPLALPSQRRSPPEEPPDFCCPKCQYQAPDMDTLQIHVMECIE
UniProt Q13546: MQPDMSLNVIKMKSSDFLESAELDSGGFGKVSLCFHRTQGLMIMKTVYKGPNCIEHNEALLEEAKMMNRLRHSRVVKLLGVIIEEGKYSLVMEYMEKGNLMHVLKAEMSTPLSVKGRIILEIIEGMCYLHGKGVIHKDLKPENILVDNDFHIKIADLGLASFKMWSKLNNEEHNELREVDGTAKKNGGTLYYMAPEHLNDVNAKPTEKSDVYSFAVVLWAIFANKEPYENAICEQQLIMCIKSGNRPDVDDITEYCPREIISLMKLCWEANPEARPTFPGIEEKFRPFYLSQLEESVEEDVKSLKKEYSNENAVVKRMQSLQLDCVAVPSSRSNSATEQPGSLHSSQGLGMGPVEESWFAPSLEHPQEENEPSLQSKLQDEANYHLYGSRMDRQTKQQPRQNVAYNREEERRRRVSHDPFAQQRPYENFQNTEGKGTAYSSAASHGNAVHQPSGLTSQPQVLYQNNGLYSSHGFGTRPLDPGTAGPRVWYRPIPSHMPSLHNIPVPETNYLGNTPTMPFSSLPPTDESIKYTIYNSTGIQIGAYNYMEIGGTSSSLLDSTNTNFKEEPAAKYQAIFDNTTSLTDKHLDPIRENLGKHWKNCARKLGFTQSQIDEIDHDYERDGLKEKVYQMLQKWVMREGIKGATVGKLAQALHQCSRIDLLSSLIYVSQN

Experiments:
[1] = target: KSHV mNeon-ORF61mutIPAM (Kaposi's sarcoma-associated herpesvirus (KSHV, human herpesvirus 8)) (UniProt Q2HR67); assay: co-IP; mNeon pulldown with mNeonGreen-Trap agarose beads from RIPA lysates (with benzonase, insoluble material discarded) of TetOn A3B or A3G RPE-1 cells infected with KSHV (MOI 0.1) or MHV-68 (MOI 5); A3 induced 16 hpi with 1 µg/mL doxycycline, lysis at 40 hpi; 1 h at 4°C; immunoblot
[2] = target: KSHV mNeon-ORF61 (viral ribonucleotide reductase R1 protein ORF61 with mNeonGreen) (Kaposi's sarcoma-associated herpesvirus (KSHV, human herpesvirus 8)) (UniProt Q2HR67); assay: as above
[3] = target: MCMV M45-HA (murine cytomegalovirus (MCMV)) (UniProt Q06A28); assay: co-IP; HEK-293A cells co-transfected, lysed 24 h later in mild lysis buffer (1% Nonidet P-40, 150 mM NaCl); HA-tagged R1 proteins precipitated with anti-HA antibody and rProtein A Sepharose; washes up to 500 mM NaCl; immunoblot
[4] = target: KSHV ORF61-HA (Kaposi's sarcoma-associated herpesvirus (KSHV, human herpesvirus 8)) (UniProt Q2HR67); assay: as above

Row | Substance | binding [1] | binding [2] | binding [3] | binding [4]
1 | A3B-mScarlet-3xHA (human APOBEC3B fused with mScarlet and an HA tag) (from UniProt Q9UH17 1-382) | no binding | binds |  | 
2 | A3G-mScarlet-2xHA (human APOBEC3G fused with mScarlet and an HA tag) (from UniProt Q9HC16 1-384) |  | no binding |  | 
3 | FLAG-tagged NEMO (pCMVTAG-NEMO) (from UniProt Q9Y6K9 1-419) |  |  | binds | no binding
4 | FLAG-tagged human RIPK1 (pcDNA3.1-hRIPK1-Flag) (from UniProt Q13546 1-671) |  |  | binds | no binding
